Results from the supplement of paper PMC10326071.
Values joined by “and” are separate entries in the source; they are usually repeats but may differ in a detail not shown here. Equal entries are not always repeated. ± gives the standard deviation of the averaged measurements. The list shows a part of the results. Repeats are few or missing, and single values can be far off.

system: SARS-CoV-2 nsp3 SARS-unique domain core (SUD-core, nsp3 residues 413-676); test: dissociation rate constant koff (BLI); higher = faster dissociation; settings: 100 µM; 25 °C

SMILES	dissociation rate constant koff
COc1cc(Nc2ncc3c(n2)-c2ccc(Cl)cc2C(c2c(F)cccc2OC)=NC3)ccc1C(=O)O	0.225 s⁻¹
CSC[C@H]1O[C@@H](n2cnc3c(N)ncnc32)[C@H](O)[C@@H]1O	0.0142 s⁻¹
CCCCCCCC/C=C\CCCCCCCC(=O)NCC(=O)O	0.0166 s⁻¹
O=c1c(O)c(-c2ccc(O)c(O)c2)oc2cc(O)cc(O)c12	0.0106 s⁻¹
OC1CCC(Nc2ncc3nc(Nc4c(F)cc(F)cc4F)n([C@H]4CCOC4)c3n2)CC1 (some centres undefined)	1.43 s⁻¹
CC1=C(CC(=O)O)c2cc(F)ccc2/C1=C\c1ccc(C(C)C)cc1	0.362 s⁻¹
Cc1ccc2c(Nc3ccc(Cl)cc3)nccc2c1Nc1ncccc1-c1ncnc2nc[nH]c12	0.0255 s⁻¹
COc1ccc(C(OC[C@H]2O[C@@H](n3ccc(NC(C)=O)nc3=O)C[C@@H]2O)(c2ccccc2)c2ccc(OC)cc2)cc1	0.164 s⁻¹
COc1cccc(Nc2nc(NCC3CCCO3)c3ccccc3n2)c1 (centres undefined)	0.211 s⁻¹
Cn1cnc([N+](=O)[O-])c1Sc1ncnc2nc[nH]c12	0.316 ± 0.39 s⁻¹
Cn1c(=O)c2[nH]cnc2n(C)c1=O	0.017 s⁻¹
Cn1c(=N)ccn([C@@H]2O[C@H](CO)[C@@H](O)[C@H]2O)c1=O	0.0167 s⁻¹
Nc1nc(Nc2ccc3c(c2)CC[C@@H](N2CCCC2)CC3)nn1-c1cc2c(nn1)-c1ccccc1CCC2	0.0527 s⁻¹
Cn1cnc([N+](=O)[O-])c1C[N+](C)(C)C/C=C/C(=O)Nc1cc2c(Nc3ccc(Cl)c(Br)c3)ncnc2cn1	0.116 s⁻¹
Nc1ncnc2c1ncn2[C@@H]1O[C@H](CO)[C@@H](O)[C@@H]1O	0.00665 s⁻¹
Nc1nc(F)nc2c1ncn2[C@@H]1O[C@H](COP(=O)(O)O)[C@@H](O)[C@@H]1O	0.0222 s⁻¹
CC(C)Nc1cc(-c2c[nH]c(C(=O)N[C@H](CO)c3cccc(Cl)c3)c2)c(Cl)cn1	0.0445 s⁻¹ and 0.0905 s⁻¹
CN1CCN(c2ccc(C(=O)Nc3cc(-c4cccc(NS(=O)(=O)c5ccccc5)c4)[nH]n3)cc2)CC1	0.0334 s⁻¹
C=CC(=O)Nc1cccc(-c2cccc3cnc(Nc4ccc(N5CCN(CCO)CC5)c(F)c4F)nc23)c1	0.0927 s⁻¹
C=CC(=O)N[C@H]1C=C(C)c2c(-c3cnc4ccccc4c3)c3c(N)ncnc3n2C1	1.35 s⁻¹

SMILES	dissociation rate constant koff
[N-]=[N+]=N[C@]1(CO)O[C@@H](n2ccc(=O)[nH]c2=O)[C@@H](O)[C@@H]1O	0.0373 s⁻¹
CN(C)c1ncnc2c1ncn2[C@@H]1O[C@H](CO)[C@@H](N)[C@H]1O	0.0133 s⁻¹
CN1CCN(c2nc(C3=C(c4c[nH]c5ccccc45)C(=O)NC3=O)c3ccccc3n2)CC1	0.976 s⁻¹
COc1cc(OC)cc(N(CCNC(C)C)c2ccc3ncc(-c4cnn(C)c4)nc3c2)c1	0.602 s⁻¹
O=C(NOCC(O)CO)c1cc(Br)c(F)c(F)c1Nc1ccc(I)cc1F (centres undefined)	0.491 s⁻¹
CC(C)=CCC/C(C)=C/CC/C(C)=C/C=C/C(C)=C/C(=O)O	0.0437 s⁻¹
CCCS(=O)(=O)Nc1ccc(F)c(-n2cc(-c3cncnc3)c3nc(N(C)C4CCN(CC)CC4)ccc32)c1F	0.474 s⁻¹
CN(C)C(=O)/C(C#N)=C/c1ccc(-c2nc3cnc4[nH]ccc4c3n2C2CCCCC2)o1	0.255 s⁻¹
C=CC(=O)Nc1cccc(Nc2nc(Nc3ccc(NC4CN(CCF)C4)cc3OC)ncc2C(F)(F)F)c1	0.941 s⁻¹
N#CC(=C(/N)Sc1ccccc1N)/C(C#N)=C(\N)Sc1ccccc1N	0.776 s⁻¹
CCOC(=O)c1cnc2ccc(-c3cncc(NS(=O)(=O)c4ccccc4)c3)cn12	0.917 s⁻¹
Nc1ncnc2c1ccn2[C@@H]1O[C@H](CO)[C@@H](O)[C@H]1O	0.016 s⁻¹
O=c1[nH]cnc2c1ncn2[C@@H]1O[C@H](CO)[C@@H](O)[C@H]1O	0.0139 s⁻¹
Cc1cn([C@H]2C[C@H](O)[C@@H](CO)O2)c(=O)nc1N	0.0191 s⁻¹
CNC(=O)c1ccccc1Oc1nc(Nc2cc(OC)c(OC)c(OC)c2)ncc1Br	1.53 s⁻¹
CC(C)n1cnc2c(NCc3nc4c(F)c(F)ccc4[nH]3)nc(N3CCCC[C@H]3CCO)nc21	0.18 s⁻¹
CCOc1cc(N2CCC(O)CC2)ccc1Nc1ncc2c(n1)N(C)c1ccccc1C(=O)N2C	0.0679 s⁻¹
COc1cc(N2CCOCC2)ccc1Nc1ncc(Cl)c(Nc2ccccc2NS(C)(=O)=O)n1	1.3 s⁻¹
Cc1c(Br)c(Br)c2c3c1nc(N1CCNCC1)n3CCC2	0.0644 s⁻¹
